Experimental data: the supplement of paper PMC4604168 (melanoma cell lines)
The list shows a part of the results. Single values are uncertain, as repeats are few or missing.

system: RVH-421; assay: cell count relative to DMSO control; melanoma cells; higher = more viable cells; conditions: library dose: standard library concentration; 72 h
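Further: cells treated in 1,536-well plates, then fixed and DAPI-stained, with nuclei counted from automated high-throughput microscope images.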

SMILES | cell count [%]
CC(C)(C)c1cnc(CSc2cnc(NC(=O)C3CCNCC3)s2)o1 + COc1cc2c(Oc3ccc4[nH]c(C)cc4c3F)ncnc2cc1OCCCN1CCCC1 [cediranib] (first compound 0.05 µM, partner dose 2 µM) | 66.6
Cc1ccc(NC(=O)c2cccc(N(C)C)c2)cc1NC(=O)c1ccc(O)cc1 + CO[C@@H]1[C@H](N(C)C(=O)c2ccccc2)C[C@H]2O[C@]1(C)n1c3ccccc3c3c4c(c5c6ccccc6n2c5c31)C(=O)NC4 [Midostaurin] (first compound 10 µM, partner dose 0.4 µM) | 81.5
CCCCCCCCc1ccc(CCC(N)(CO)CO)cc1 [fingolimod] + Oc1nc(-c2ccc(C(F)(F)F)cc2)nc2c1CSCC2 [XAV939] (first compound 10 µM, partner dose 10 µM) | 243
Cc1ccc(NC(=O)c2cccc(N(C)C)c2)cc1NC(=O)c1ccc(O)cc1 + CN(NC(=O)CC(=O)NN(C)C(=S)c1ccccc1)C(=S)c1ccccc1 [STA4783] (first compound 10 µM, partner dose 0.03 µM) | 63.3
